Experimental data published in the RNAGym collection of RNA variant scans (doi:10.7554/elife.90254).
The source gives no read counts; variants with many changes may rest on few reads.

B1: LINE1-mini (parent)
chain: GGCAGAGCUCAACACAGCGUGGCAAAGUGGCUGUGGCUAGACUGCC

Variants of: B1
Experiment: self-cleavage, relative activity (ratio to wild type); higher = more cleavage; in vitro, sequencing; the parent is a self-cleaving ribozyme

Which self-cleavage does the source give for G2A C23U G30A C45A here?
Its self-cleavage is 1.28.

With G2A G5A A12G G44C C45G as the variant, how does the self-cleavage read?
The self-cleavage was 0.18.

With G2A C13U U28C C42U as the variant, how does the self-cleavage read?
The self-cleavage was 0.43.

Which self-cleavage does the source give for G2A C13G C31G G33C U38C here?
Its self-cleavage is 0.02.

For G2A C8U C31A, which self-cleavage is on record?
The self-cleavage was 0.32.

With G2A C3A A16U U28C as the variant, how does the self-cleavage read?
The self-cleavage was 0.81.

With G2A C3A C8A U34G C42G as the variant, how does the self-cleavage read?
Its self-cleavage is 1.89.

For G2A C3A C23A A24C G27U U32A G40A C42A, which self-cleavage is on record?
The self-cleavage was 0.63.

For G2A C3A A24C U28A C37U A41G C42U, which self-cleavage is on record?
Its self-cleavage is 0.07.

For G2A C18A G22C, which self-cleavage is on record?
The self-cleavage was 0.8.

With G2A A41G G44C as the variant, how does the self-cleavage read?
The self-cleavage was 0.1.

Which self-cleavage does the source give for G2A C15A C23U A24U U34A G36A C46A here?
The self-cleavage was 0.17.

With G2A C3U C8U as the variant, how does the self-cleavage read?
The self-cleavage was 2.29.

Which self-cleavage does the source give for G2A C13U G22C G33U here?
The self-cleavage was 0.08.

With G2A C10G U28G A39U as the variant, how does the self-cleavage read?
The self-cleavage was 0.03.

With G2A A26G C42U as the variant, how does the self-cleavage read?
Its self-cleavage is 0.21.

Which self-cleavage does the source give for G2A C3G A16G C45A here?
The self-cleavage was 0.63.

With G2A C10G A24G as the variant, how does the self-cleavage read?
The self-cleavage was 0.05.

Which self-cleavage does the source give for G2A C18G A41G here?
The self-cleavage was 0.29.

For G2A A16U G40C C46G, which self-cleavage is on record?
Its self-cleavage is 0.13.

For G2A A11C G19C G35C C37U, which self-cleavage is on record?
The self-cleavage was 0.02.

With G2A C37A U43A as the variant, how does the self-cleavage read?
Its self-cleavage is 0.25.

For G2A C15A C46U, which self-cleavage is on record?
The self-cleavage was 0.24.

Which self-cleavage does the source give for G2A C13U C15U C18A G19U U20G C23U here?
Its self-cleavage is 0.16.

Which self-cleavage does the source give for G2A C23U U32G here?
The self-cleavage was 0.22.

With G2A C8A A11C A12U A41C as the variant, how does the self-cleavage read?
The self-cleavage was 0.01.

For G2A C3A A24G A25U, which self-cleavage is on record?
Its self-cleavage is 0.99.

For G2A C8U U28A G44U, which self-cleavage is on record?
Its self-cleavage is 0.06.

For G2A A24G U32C G44U, which self-cleavage is on record?
Its self-cleavage is 0.15.

With G2A A6G C13G G19C as the variant, how does the self-cleavage read?
The self-cleavage was 0.07.

With G2A C3A A12C G17U as the variant, how does the self-cleavage read?
Its self-cleavage is 0.05.

Which self-cleavage does the source give for G2A C3A U20C A26U G30U here?
Its self-cleavage is 1.26.

For G2A A16U C31G, which self-cleavage is on record?
Its self-cleavage is 0.05.

With G2A A11C G19U A25G C37A as the variant, how does the self-cleavage read?
Its self-cleavage is 0.01.

Which self-cleavage does the source give for G2A A12U G33C G35U U38A C46G here?
The self-cleavage was 0.06.

For G2A A16G G19C U20A A25C G40U, which self-cleavage is on record?
Its self-cleavage is 0.03.

With G2A A11C U20C A26U G44A as the variant, how does the self-cleavage read?
Its self-cleavage is 0.07.

Which self-cleavage does the source give for G2A A11U U20A here?
The self-cleavage was 0.01.

For G2A C3U A6C, which self-cleavage is on record?
Its self-cleavage is 0.12.

With G2A C18A A26U G29U A41G C42G as the variant, how does the self-cleavage read?
Its self-cleavage is 0.02.

For G2A C15G C31A U43C C46A, which self-cleavage is on record?
The self-cleavage was 0.03.

For G2A C18G C46A, which self-cleavage is on record?
Its self-cleavage is 0.22.

Which self-cleavage does the source give for G2A A16G G29A U38G A39U C46U here?
Its self-cleavage is 0.39.

With G2A C8G A16U C37U as the variant, how does the self-cleavage read?
The self-cleavage was 0.05.

For G2A C15A C37A, which self-cleavage is on record?
The self-cleavage was 0.2.

For G2A C13G G21A C37U A39C C45A, which self-cleavage is on record?
Its self-cleavage is 0.08.

Which self-cleavage does the source give for G2A C3G U32C U34G G35U G36A here?
Its self-cleavage is 0.14.

With G2A G5A A11C A16G as the variant, how does the self-cleavage read?
The self-cleavage was 0.08.

For G2A C23A G33A, which self-cleavage is on record?
Its self-cleavage is 0.05.

For G2A C3U G17U, which self-cleavage is on record?
The self-cleavage was 0.41.

With G2A A14U G19C G35U as the variant, how does the self-cleavage read?
The self-cleavage was 0.77.

With G2A A11U C15A A16U U32C as the variant, how does the self-cleavage read?
Its self-cleavage is 0.06.

Which self-cleavage does the source give for G2A C3U G5A C15G here?
Its self-cleavage is 0.15.

With G2A A11U G36A as the variant, how does the self-cleavage read?
Its self-cleavage is 0.1.

Which self-cleavage does the source give for G2A C13G U20A here?
Its self-cleavage is 1.31.

For G2A C15A G19A U34A, which self-cleavage is on record?
Its self-cleavage is 0.1.

For G2A C31A A39U, which self-cleavage is on record?
Its self-cleavage is 0.15.

Which self-cleavage does the source give for G2A C8A G35U C45G here?
The self-cleavage was 0.48.

For G2A C31G G35C, which self-cleavage is on record?
The self-cleavage was 0.1.

For G2A C15A C18U G21C, which self-cleavage is on record?
The self-cleavage was 0.24.

With G2A G5A C15U A16C C31A U38A A41C as the variant, how does the self-cleavage read?
Its self-cleavage is 0.06.

Which self-cleavage does the source give for G2A C31U A39G C46A here?
The self-cleavage was 0.05.

With G2A A12U A14G G21U G33A C37A as the variant, how does the self-cleavage read?
Its self-cleavage is 0.03.

Which self-cleavage does the source give for G2A C13A G21A here?
The self-cleavage was 0.2.

With G2A C8G G29U as the variant, how does the self-cleavage read?
The self-cleavage was 0.08.

Which self-cleavage does the source give for G2A A14G C15A G19U here?
Its self-cleavage is 0.09.

Which self-cleavage does the source give for G2A C3U U20C here?
The self-cleavage was 0.81.

For G2A G5A U9A A14G G17A A39G A41U, which self-cleavage is on record?
The self-cleavage was 0.6.

With G2A C3A G7C C18U A26U U38G as the variant, how does the self-cleavage read?
The self-cleavage was 1.74.

With G2A C10G U34G as the variant, how does the self-cleavage read?
Its self-cleavage is 0.2.

With G2A C10A C37G as the variant, how does the self-cleavage read?
The self-cleavage was 0.02.

With G2A C10U G27U C37G as the variant, how does the self-cleavage read?
The self-cleavage was 0.02.

For G2A A26C A39U, which self-cleavage is on record?
Its self-cleavage is 1.83.

For G2A A6G C13A A26U, which self-cleavage is on record?
The self-cleavage was 0.08.

With G2A A16C G22U G33A U43G as the variant, how does the self-cleavage read?
Its self-cleavage is 0.03.

For G2A C13A A16C G17A U43G, which self-cleavage is on record?
Its self-cleavage is 0.1.

Which self-cleavage does the source give for G2A A16G C31A A39U here?
Its self-cleavage is 0.08.

For G2A C23A C45U, which self-cleavage is on record?
Its self-cleavage is 3.

With G2A G5A A16C G44C C45G as the variant, how does the self-cleavage read?
Its self-cleavage is 0.08.

For G2A C3G U32A, which self-cleavage is on record?
The self-cleavage was 0.41.

With G2A C13U U43C as the variant, how does the self-cleavage read?
The self-cleavage was 0.11.

With G2A C8G C15A G36C as the variant, how does the self-cleavage read?
The self-cleavage was 0.07.

For G2A C13A C15A G29C G30U A39C, which self-cleavage is on record?
Its self-cleavage is 0.03.
